Laboratory results reported in PubChem BioAssay AID686978 (National Center for Advancing Translational Sciences (NCATS), 2013).
Among all 420,000 compounds or so, about 64,000 (15%) were called active. This list was built around the results that the source calls inconclusive (neither active nor inactive); the mix of calls is not that of the screen. Calls follow the shape of the dose curve; as a rule, active = well fitted inhibition curve with a large enough effect; inconclusive = small, poorly fitted or top-dose-only effect; inactive = flat fitted curve, though single readings scatter. Potencies of inconclusive entries are left out as doubtful fits.
% is scaled to controls: 0 for no effect and ±100 for the full control effect; potency is read from the fitted curve at half-maximal effect; tags tell the direction and shape of the fitted curve.

Assay: qHTS for Inhibitors of human tyrosyl-DNA phosphodiesterase 1 (TDP1): qHTS in cells in absence of CPT; also: nearly all actives have a fitted effect of over 55% in size
Details: DT40 Tdp1-/- hTDP1 cells, no CPT, ATP luminescence, 48 h; activity change, negative = growth inhibition: at 46.2 µM (top of the series)
Summary of the method: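 Growth kinetics read by CellTiter-Glo luminescence after ≥48 hr at 37 °C. Cells: DT40 Tdp1-/- stably carrying human TDP1, 400 per well, compound exposure in the absence of CPT (DMSO vehicle).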
For CC1CCCN(CCCNC(=O)c2ccc3c(c2)N(Cc2cccc(Cl)c2)C(=O)c2ccccc2S3(=O)=O)C1 (centres undefined), the Potency was active: 5.8 µM. With COC(=O)c1ccc(CN2CCC(Oc3cccc(C(=O)N4CCOCC4)c3)CC2)cc1 the Potency was inconclusive [inhibitor, single point]. For CC(=O)c1cc(C)c(OC(=O)c2ccccc2)c(C)c1, the Potency was inconclusive [inhibitor, single point]. With COc1ccc(NC2=C(C(C)=O)C(c3ccc(OC)cc3)C(C(C)=O)C(C)(O)C2)cc1 (centres undefined) the Potency was inconclusive [inhibitor, single point]. In the case of O=C(CSc1nnc(COc2ccc(Cl)cc2)o1)N1CCCC1, the Potency is reported as inconclusive [inhibitor, single point]. In the case of Cc1ccc(NC(=O)CN(C)CC(=O)N(C)Cc2ccccc2)cc1, the Potency is reported as inconclusive [inhibitor, single point]. With CSc1ccc(CNC(=O)C2CCC(=O)N(Cc3cccc(F)c3)C2)cc1 (centres undefined) the Potency was inconclusive [inhibitor, single point]. With COc1ccccc1C(=O)Nc1cccc(C(=O)OCc2cc(=O)n3nc(C4CC4)sc3n2)c1 the Potency was inconclusive [inhibitor, single point]. With COc1ccc(CCC(=O)Nc2nc3ccccc3[nH]2)cc1 the “activity change, negative = growth inhibition” value was inactive: -13.1%. In the case of O=[N+]([O-])c1cccc(-c2csc(Nc3ccccc3)n2)c1, the Potency is reported as active: 29.1 µM. In the case of COc1ccc(C(=O)NNC(=S)NC(=O)c2ccccc2[N+](=O)[O-])cc1, the Potency is reported as active: 23.1 µM. With O=C(C1CCCN(c2ncnc3c2nc2n3CCCCC2)C1)N1CCCCC1 (centres undefined) the Potency was inconclusive [inhibitor, single point]. With CN1CCN(c2ncnc3c2ncn3[C@H]2CN(Cc3ccc(-c4ccccc4)cc3)C[C@@H](CO)O2)CC1 the Potency was inconclusive [inhibitor, single point]. For O=C(Nc1ccc(OC(F)(F)F)cc1)C(Cc1ccccc1)NS(=O)(=O)c1cccc2nsnc12 (centres undefined), the Potency was inconclusive [inhibitor, single point]. In the case of CCOC(=O)c1sc(NC(=O)CCCCl)nc1C, the Potency is reported as inconclusive [inhibitor, single point]. With CC1CCC(C(C)C)[C@H](O)C1 (some centres undefined) the “activity change, negative = growth inhibition” value was inactive: 0.309%. For CCOC(=O)C1=CCC(c2ccccc2C(F)(F)F)N(S(=O)(=O)c2ccc(C)cc2)C1 (centres undefined), the Potency was active: 23.1 µM. For CCOCCCNC(=O)/C(C#N)=C/c1cc(Br)c(O)c(Br)c1, the Potency was active: 1.64 µM. For N#Cc1cccc(NC(=O)N2CCCC3(CCN(C(=O)c4cc(C(F)(F)F)cc(C(F)(F)F)c4)CC3)C2)c1, the Potency was inconclusive [inhibitor, single point]. For Cn1c(CCNC(=O)c2ccc(Cl)c(Cl)c2)nnc1SCc1ccc(Cl)c(Cl)c1, the Potency was inconclusive [inhibitor, single point]. In the case of C1=Nc2ccccc2/C1=C/c1c[nH]c2ccccc12, the Potency is reported as inconclusive [inhibitor, single point]. With O=C(Cc1cccc2ccccc12)NCC(=O)N1CCN(CC(=O)Nc2ccc(F)cc2)CC1 the Potency was active: 18.4 µM. In the case of CCCNC(=O)NC(=O)COC(=O)c1cccc(NS(=O)(=O)c2ccc(F)c(F)c2)c1, the “activity change, negative = growth inhibition” value is reported as inactive: -27.9%. In the case of O=C(Cn1cnc2cc([N+](=O)[O-])ccc2c1=O)Nc1ccccc1-c1ccccc1, the Potency is reported as inconclusive [inhibitor, single point]. For Cc1cccc(N2CCN(C(c3cccs3)c3nnnn3C(C)(C)C)CC2)c1C (centres undefined), the Potency was active: 22.4 µM. For Cc1ccc(SCCN2CCN(CC(C)C)CCC2=O)cc1, the Potency was inconclusive [inhibitor, single point]. For CCN(CC(=O)NC(C)C)C(=O)C(CCSC)NC(=O)c1cccc(C)c1 (centres undefined), the “activity change, negative = growth inhibition” value was inactive: -16.4%. In the case of COc1ccccc1NS(=O)(=O)c1cccc(C(=O)NCC(c2cccs2)N(C)C)c1 (centres undefined), the “activity change, negative = growth inhibition” value is reported as inactive: -16.9%. For COC(=O)[C@]1(Cc2ccccc2)N[C@H](CN(C)S(=O)(=O)c2ccc(C(C)(C)C)cc2)[C@@H]2C(=O)N(Cc3ccccc3)C(=O)[C@@H]21, the Potency was inconclusive [inhibitor, single point]. For Cc1ccc(NC(=S)NCCc2c[nH]c3ccccc23)c(C)c1, the Potency was active: 20.6 µM. With O=C(c1cnc2n(c1=O)CCS2)N1CCN(C(c2ccccc2)c2ccc(Cl)cc2)CC1 (centres undefined) the Potency was active: 20.6 µM. With COc1cccc(CNC(=O)Cn2ccc3cc(S(=O)(=O)N4CCCC4)ccc32)c1OC the Potency was inconclusive [inhibitor, single point]. For C=CCn1c(SCC(=O)c2ccccc2)nnc1-c1cc2ccccc2o1, the Potency was inconclusive [inhibitor, partial curve]. In the case of COc1ccc2cc(C3CC(c4ccco4)=NN3C(=O)CCC(=O)O)c(Cl)nc2c1 (centres undefined), the Potency is reported as inconclusive [inhibitor, single point]. With N#Cc1ccc(NC(=O)CN2C(=O)NC(Cc3ccccc3)C2=O)cc1 (centres undefined) the Potency was inconclusive [inhibitor, single point]. In the case of CCOC(=O)c1c(Nc2ccc(O)cc2)nnc(-c2ccccc2)c1-c1ccccc1, the Potency is reported as inconclusive [inhibitor, single point]. In the case of COc1cccc(OC)c1C(=O)Nc1ccncc1, the “activity change, negative = growth inhibition” value is reported as inactive: 1.6%. In the case of Cc1cc(NC(=O)c2c(Br)c(C)nn2C)no1, the activity change, negative = growth inhibition is reported as inconclusive: -31.3% [inhibitor]. For Cc1ccc(NC(=O)C[n+]2cc(-c3ccccc3)n3c2CCC3)c(C)c1, the Potency was inconclusive [inhibitor, full curve]. With Cc1ccc(C(=O)Nc2cc(C)nn2CCC#N)cc1 the “activity change, negative = growth inhibition” value was inactive: -14.4%. In the case of COc1ccc(NC(=S)N(CCCN2CCCC2)Cc2ccco2)cc1, the “activity change, negative = growth inhibition” value is reported as inactive: -4.89%. For Cc1ccc(OCCCCn2cnc3ccccc32)cc1, the Potency was active: 20.6 µM. With NC(=O)COC(=O)c1cc(S(=O)(=O)N2CCN(c3ccccc3)CC2)ccc1Cl the “activity change, negative = growth inhibition” value was inactive: -2.99%. In the case of O=C(Cc1ccccc1)Nc1nonc1NC(=O)c1ccccc1, the Potency is reported as inconclusive [inhibitor, single point]. With Cc1cc(/C=C2/NC(=O)NC2=O)c(C)n1-c1ccncc1 the “activity change, negative = growth inhibition” value was inactive: -14.8%. For CCc1cccc(C)c1NC(=O)c1ccc(CN2CCc3ccccc3C2)cc1, the Potency was inconclusive [inhibitor, single point]. For COc1cc(C=O)c(Br)cc1OCC(=O)NCc1ccccc1, the Potency was inconclusive [inhibitor, single point]. For NC(CO)c1csc(Nc2ccc(C(=O)c3ccccc3)cc2)n1 (centres undefined), the Potency was inconclusive [inhibitor, single point]. For CCOC(=O)c1c(NC(=O)CSc2ncnc3ccccc23)sc(C)c1C, the Potency was active: 14.6 µM. For CCn1c(SCc2ccc(Cl)cc2)nnc1-c1ccccc1, the Potency was inconclusive [inhibitor, partial curve, poor fit]. In the case of Cc1cccc(CN2C(=O)c3ccccc3Sc3ccc(C(=O)NCCN4CCOCC4)cc32)c1, the Potency is reported as inconclusive [inhibitor, single point]. With CCN(CC)S(=O)(=O)c1ccc2c(c1)nc(CN(C)C(=O)Nc1ccc(F)cc1)n2C the Potency was inconclusive [inhibitor, full curve]. For Cc1cccc(NS(=O)(=O)c2ccc3c(c2)CCC(=O)N3)c1, the activity change, negative = growth inhibition was inconclusive: -32.7% [inhibitor]. In the case of C=CCC[C@@H](Cc1ccc(F)cc1)C(=O)OCCNC(=O)[C@@H](CC=C)CC(=O)N[C@H](CO)Cc1ccccc1, the Potency is reported as inconclusive [inhibitor, single point]. In the case of COC(=O)c1cc(-c2ccc(OC)c(OC)c2)n[nH]1, the Potency is reported as inconclusive [inhibitor, single point]. With Cc1ccc(-n2c(N)c(C(N)=O)sc2=S)c(C)c1 the Potency was active: 25.9 µM. With CCOC(=O)[C@]12CCCC=C1N(Cc1ccco1)C(=O)[C@H](CC(=O)NCCCCc1ccccc1)C2 the Potency was inconclusive [inhibitor, single point]. With COCc1c(C(=O)N2CCN(c3ccc(C(F)(F)F)cn3)CC2)oc2ccccc12 the Potency was inconclusive [inhibitor, single point]. In the case of Cc1ccc2nc(Cl)c3cc(C(=O)NCCCN4CCCC4)sc3c2c1, the Potency is reported as active: 5.8 µM. In the case of COc1ccc(CNC(=O)CSc2n[nH]c(-c3ccc(F)cc3)n2)cc1, the Potency is reported as inconclusive [inhibitor, single point]. With CS(=O)(=O)c1ccccc1-c1nnc(NC(=O)c2ccc3c(c2)OCCO3)o1 the Potency was inconclusive [inhibitor, single point]. For C#CCOCCOCCOCCNc1nc(N2CCN(C(=O)[C@H](C(C)C)n3cc(CCO)nn3)CC2)nc(N2CCN(C(=O)[C@H](CCCCN)n3cc(CCCC)nn3)CC2)n1, the “activity change, negative = growth inhibition” value was inactive: 2.12%. In the case of O=C(COc1ccccc1C(=O)Nc1ccccc1)Nc1ccc2ccccc2c1, the Potency is reported as active: 20 µM. In the case of CC1=Nc2ccccc2N=C(NC(=O)CN2CCN(c3ccc(F)cc3)CC2)C1c1ccccc1 (centres undefined), the Potency is reported as inconclusive [inhibitor, single point]. With O=C(Nc1cccc(C(=O)O)c1)Nc1ccc2c(c1)OCO2 the “activity change, negative = growth inhibition” value was inactive: -16.9%. In the case of O=C1CC(c2ccco2)Cc2nc(N3CCc4ccccc4C3)ncc21 (centres undefined), the Potency is reported as inconclusive [inhibitor, single point]. With COc1cc(Cl)c(C)cc1NC(=O)CCc1c(C)nc2c3cccnc3nn2c1C the Potency was inconclusive [inhibitor, single point]. For CCCCNCc1ccc(OCc2ccc(Cl)nc2)c(OC)c1, the “activity change, negative = growth inhibition” value was inactive: -1.81%. With c1ccc(-c2nc(-c3cccs3)[nH]c2-c2ccccc2)cc1 the Potency was inconclusive [inhibitor, single point].
